Laboratory results as given in patent publication US20210130346A1, “Bromodomain Inhibitors” (AbbVie Inc., priority 2017, published 2021).

target: BRD4 (BDII_E352-M457) (Homo sapiens, UniProt O60885); assay: TR-FRET bromodomain binding assay, BRD4 second bromodomain (BDII); settings: mean Ki; 4 nM His tagged BRD4 (BDII_E352-M457), 30 nM Alexa647 probe; Ki calculated from IC50, probe Kd and probe concentration
Protocol: A time-resolved fluorescence resonance energy transfer (TR-FRET) assay was used to determine the affinities of compounds of the Examples listed in Table 1 for each bromodomain of BRD4. […] An Alexa647-labeled BET-inhibitor was used as the fluorescent probe in the assay.
Compound dilution series were prepared in DMSO via an approximately 3-fold serial dilution. Compound dilutions were added directly into white, low-volume assay plates (Perkin Elmer Proxiplate 384 Plus# 6008280) using a Labcyte Echo in conjunction with Labcyte Access and Thermo Multidrop CombinL robotics. Compounds were then suspended in eight microliters (μL) of assay buffer (20 mM Sodium Phosphate, pH 6.0, 50 mM NaCl, 1 mM Ethylenediaminetetraacetic acid disodium salt dihydrate, 0.01% Triton X-100, 1 mM DL-Dithiothreitol) containing His-tagged bromodomain, Europium-conjugated anti-His antibody (Invitrogen PV5596) and Alexa-647-conjugated probe.
After a one-hour equilibration at room temperature, TR-FRET ratios were determined using an Envision multilabel plate reader (Ex 340, Em 495/520).
TR-FRET data were normalized to the means of 24 no-compound controls (“high”) and 8 controls containing 1 μM un-labeled probe (“low”). Percent inhibition was plotted as a function of compound concentration and the data were fit with the 4 parameter logistic equation to obtain IC50s. Inhibition constants (Ki) were calculated from the IC50s, probe Kd and probe concentration.

Ki | Structure (SMILES)
0.00331 µM | CN1C(=O)[C@@]2(C[C@H]2c2cn(C)c(=O)c3[nH]c(-c4cnn(C)c4)cc23)c2ccccc21 (racemic) [Example 33, rac-(1R,2S)-1′-methyl-2-[6-methyl-2-(1-methyl-1H-pyrazol-4-yl)-7-oxo-6,7-dihydro-1H-pyrrolo[2,3-c]pyridin-4-yl]spiro[cyclopropane-1,3′-indol]-2′(1H)-one]
0.283 µM | Cc1nn(C)cc1-c1cc2c([C@@H]3C[C@@]34C(=O)N(C)c3ccccc34)cn(C)c(=O)c2[nH]1 (racemic) [Example 36, rac-(1R,2S)-2-[2-(1,3-dimethyl-1H-pyrazol-4-yl)-6-methyl-7-oxo-6,7-dihydro-1H-pyrrolo[2,3-c]pyridin-4-yl]-1′-methylspiro[cyclopropane-1,3′-indol]-2′(1H)-one]
0.00945 µM | CN1C(=O)[C@@]2(C[C@H]2c2cn(C)c(=O)c3[nH]c(-c4cc[nH]n4)cc23)c2ccccc21 (racemic) [Example 37, rac-(1R,2S)-1′-methyl-2-[6-methyl-7-oxo-2-(1H-pyrazol-3-yl)-6,7-dihydro-1H-pyrrolo[2,3-c]pyridin-4-yl]spiro[cyclopropane-1,3′-indol]-2′(1H)-one]
0.896 µM | CN1C(=O)[C@@]2(C[C@@H]2c2cn(C)c(=O)c3[nH]c(-c4cc[nH]n4)cc23)c2ccccc21 (racemic) [Example 38, rac-(1R,2R)-1′-methyl-2-[6-methyl-7-oxo-2-(1H-pyrazol-3-yl)-6,7-dihydro-1H-pyrrolo[2,3-c]pyridin-4-yl]spiro[cyclopropane-1,3′-indol]-2′(1H)-one]
0.00408 µM | Cc1cc(-c2cc3c([C@@H]4C[C@@]45C(=O)N(C)c4ccccc45)cn(C)c(=O)c3[nH]2)on1 (racemic) [Example 39, rac-(1R,2S)-1′-methyl-2-[6-methyl-2-(3-methyl-1,2-oxazol-5-yl)-7-oxo-6,7-dihydro-1H-pyrrolo[2,3-c]pyridin-4-yl]spiro[cyclopropane-1,3′-indol]-2′(1H)-one]
0.45 µM | Cc1cc(-c2cc3c([C@H]4C[C@@]45C(=O)N(C)c4ccccc45)cn(C)c(=O)c3[nH]2)on1 (racemic) [Example 40, rac-(1R,2R)-1′-methyl-2-[6-methyl-2-(3-methyl-1,2-oxazol-5-yl)-7-oxo-6,7-dihydro-1H-pyrrolo[2,3-c]pyridin-4-yl]spiro[cyclopropane-1,3′-indol]-2′(1H)-one]
0.0182 µM | CN1C(=O)[C@@]2(C[C@H]2c2cn(C)c(=O)c3[nH]c(-c4nccn4C)cc23)c2ccccc21 (racemic) [Example 41, rac-(1R,2S)-1′-methyl-2-[6-methyl-2-(1-methyl-1H-imidazol-2-yl)-7-oxo-6,7-dihydro-1H-pyrrolo[2,3-c]pyridin-4-yl]spiro[cyclopropane-1,3′-indol]-2′(1H)-one]
0.12 µM | CN1C(=O)[C@@]2(C[C@H]2c2cn(C)c(=O)c3[nH]c(-c4ncco4)cc23)c2ccccc21 (racemic) [Example 42, rac-(1R,2S)-1′-methyl-2-[6-methyl-2-(1,3-oxazol-2-yl)-7-oxo-6,7-dihydro-1H-pyrrolo[2,3-c]pyridin-4-yl]spiro[cyclopropane-1,3′-indol]-2′(1H)-one]
0.00763 µM | CN1C(=O)[C@@]2(C[C@H]2c2cn(C)c(=O)c3[nH]c(-c4cn(C)cn4)cc23)c2ccccc21 (racemic) [Example 43, rac-(1R,2S)-1′-methyl-2-[6-methyl-2-(1-methyl-1H-imidazol-4-yl)-7-oxo-6,7-dihydro-1H-pyrrolo[2,3-c]pyridin-4-yl]spiro[cyclopropane-1,3′-indol]-2′(1H)-one]
0.0179 µM | CN1C(=O)[C@@]2(C[C@H]2c2cn(C)c(=O)c3[nH]c(-c4cncn4C)cc23)c2ccccc21 (racemic) [Example 44, rac-(1R,2S)-1′-methyl-2-[6-methyl-2-(1-methyl-1H-imidazol-5-yl)-7-oxo-6,7-dihydro-1H-pyrrolo[2,3-c]pyridin-4-yl]spiro[cyclopropane-1,3′-indol]-2′(1H)-one]
0.0276 µM | CN1C(=O)[C@@]2(C[C@H]2c2cn(C)c(=O)c3[nH]c(-c4ccccn4)cc23)c2ccccc21 (racemic) [Example 45, rac-(1R,2S)-1′-methyl-2-[6-methyl-7-oxo-2-(pyridin-2-yl)-6,7-dihydro-1H-pyrrolo[2,3-c]pyridin-4-yl]spiro[cyclopropane-1,3′-indol]-2′(1H)-one]
2.23 µM | Cc1ccnc(-c2cc3c([C@@H]4C[C@@]45C(=O)N(C)c4ccccc45)cn(C)c(=O)c3[nH]2)c1 (racemic) [Example 46, rac-(1R,2S)-1′-methyl-2-[6-methyl-2-(4-methylpyridin-2-yl)-7-oxo-6,7-dihydro-1H-pyrrolo[2,3-c]pyridin-4-yl]spiro[cyclopropane-1,3′-indol]-2′(1H)-one]
0.00816 µM | CN1C(=O)[C@@]2(C[C@H]2c2cn(C)c(=O)c3[nH]c(-c4cccnc4)cc23)c2ccccc21 (racemic) [Example 47, rac-(1R,2S)-1′-methyl-2-[6-methyl-7-oxo-2-(pyridin-3-yl)-6,7-dihydro-1H-pyrrolo[2,3-c]pyridin-4-yl]spiro[cyclopropane-1,3′-indol]-2′(1H)-one]
0.00944 µM | CN1C(=O)[C@@]2(C[C@H]2c2cn(C)c(=O)c3[nH]c(-c4ccncc4)cc23)c2ccccc21 (racemic) [Example 50, rac-(1R,2S)-1′-methyl-2-[6-methyl-7-oxo-2-(pyridin-4-yl)-6,7-dihydro-1H-pyrrolo[2,3-c]pyridin-4-yl]spiro[cyclopropane-1,3′-indol]-2′(1H)-one]
0.00336 µM | CN1C(=O)[C@@]2(C[C@H]2c2cn(C)c(=O)c3[nH]c(-c4ccnc(C(F)(F)F)c4)cc23)c2ccccc21 (racemic) [Example 51, rac-(1R,2S)-1′-methyl-2-{6-methyl-7-oxo-2-[2-(trifluoromethyl)pyridin-4-yl]-6,7-dihydro-1H-pyrrolo[2,3-c]pyridin-4-yl}spiro[cyclopropane-1,3′-indol]-2′(1H)-one]
0.00968 µM | CN1C(=O)[C@@]2(C[C@H]2c2cn(C)c(=O)c3[nH]c(-c4cncnc4)cc23)c2ccccc21 (racemic) [Example 54, rac-(1R,2S)-1′-methyl-2-[6-methyl-7-oxo-2-(pyrimidin-5-yl)-6,7-dihydro-1H-pyrrolo[2,3-c]pyridin-4-yl]spiro[cyclopropane-1,3′-indol]-2′(1H)-one]
0.0366 µM | CN1C(=O)[C@@]2(C[C@H]2c2cn(C)c(=O)c3[nH]c(-c4ccncn4)cc23)c2ccccc21 (racemic) [Example 55, rac-(1R,2S)-1′-methyl-2-[6-methyl-7-oxo-2-(pyrimidin-4-yl)-6,7-dihydro-1H-pyrrolo[2,3-c]pyridin-4-yl]spiro[cyclopropane-1,3′-indol]-2′(1H)-one]
0.0179 µM | CN1C(=O)[C@@]2(C[C@H]2c2cn(C)c(=O)c3[nH]c(-c4ccnnc4)cc23)c2ccccc21 (racemic) [Example 56, rac-(1R,2S)-1′-methyl-2-[6-methyl-7-oxo-2-(pyridazin-4-yl)-6,7-dihydro-1H-pyrrolo[2,3-c]pyridin-4-yl]spiro[cyclopropane-1,3′-indol]-2′(1H)-one]
1.7 µM | CN1C(=O)[C@@]2(C[C@@]2(C)c2cn(C)c(=O)c3[nH]c(C(=O)NC4CC4)cc23)c2ccc(OC(F)(F)F)cc21 (racemic) [Example 58, rac-N-cyclopropyl-4-[(1R,2S)-1′,2-dimethyl-2′-oxo-6′-(trifluoromethoxy)-1′,2′-dihydrospiro[cyclopropane-1,3′-indol]-2-yl]-6-methyl-7-oxo-6,7-dihydro-1H-pyrrolo[2,3-c]pyridine-2-carboxamide]
